Data: publication PMC7819943, “Rice protein-binding microarrays: a tool to detect cis-acting elements near promoter regions in rice”
The list shows a part of the results.

These sequences were tested against T1, OsWOX13 (Oryza sativa, UniProt Q5QMM3 1-267) (assay: protein-binding microarray (RPBM); PBS, 2% BSA, 51.3 ng/ul salmon testes DNA, 50 uM zinc acetate, 200 nM TF, 25 C, 1 h; high values mean tight binding). Settings: protein: recombinant; tags: N-terminal polyhistidine and DsRed monomer fusion (pET32a); label: CyDye5-dUTP incorporated in the synthesized complementary strand; 3' TTTTT single-stranded linker to array surface; dsDNA, one strand shown.
T1 sequence: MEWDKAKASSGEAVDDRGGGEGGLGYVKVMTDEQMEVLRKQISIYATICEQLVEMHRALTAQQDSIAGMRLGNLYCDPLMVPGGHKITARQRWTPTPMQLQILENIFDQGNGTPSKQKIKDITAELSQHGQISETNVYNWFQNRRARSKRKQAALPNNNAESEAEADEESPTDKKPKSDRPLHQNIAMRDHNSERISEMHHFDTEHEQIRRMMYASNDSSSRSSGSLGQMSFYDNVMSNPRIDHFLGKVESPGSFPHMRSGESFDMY
Method in brief: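 Transcription factors were each fused at the N-terminus to a polyhistidine tag plus DsRed and expressed in E. coli BL21-CodonPlus before Ni–NTA purification. Binding to a double-stranded custom Agilent array was carried out with 200 nM protein at 25 °C for 1 h in PBS, 2% BSA, salmon testes DNA and 50 µM zinc acetate. The binding signal is per-feature fluorescence intensity, in arbitrary units, on an Axon 4000B scanner.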

Sequence	binding signal
CATGCCTATCGTGATTAGTTAGCCCAGTCAGCTCGATCAGCGGAGTCACCTAGTGCAG	7680 fluorescence intensity (a.u.)
AAATCGGTAATTTTATAATGGCATGGATCTAATTAACCCTCGGAGTCACCTAGTGCAG	5860 fluorescence intensity (a.u.)
GATATACTATTGATATAATTGATGGATTGACTGGTAAACCCGGAGTCACCTAGTGCAG	44000 fluorescence intensity (a.u.)
ACAATATAATTACACTTCAATTCCATTATATTACATGCGACGGAGTCACCTAGTGCAG	15900 fluorescence intensity (a.u.)
ATTATATCACTTATTAATTTTCAGGCTATGAAACAAGAGCCGGAGTCACCTAGTGCAG	4070 fluorescence intensity (a.u.)
CTCATTTAATTGTGCTGTTTTCTTTCTCTTCAGTGAAATACGGAGTCACCTAGTGCAG	9750 fluorescence intensity (a.u.)
GTGGAGATGATGGGATTTGCTTTGAGATTTGTGATGGAACCGGAGTCACCTAGTGCAG	4170 fluorescence intensity (a.u.)
CAAGCCTTCACTGATTGCACTGTGGTAGTATGGACTTAAGCGGAGTCACCTAGTGCAG	4720 fluorescence intensity (a.u.)
GGAGGCGCATTGCCACCGATTGATTGAGCTCTCCTTCTCCCGGAGTCACCTAGTGCAG	6010 fluorescence intensity (a.u.)
ATGAAATTAACTAAAATAATAATAAAAGTAATCACCTCAGCGGAGTCACCTAGTGCAG	13500 fluorescence intensity (a.u.)
ATACACAGCTGTAATTTAAAACAATTTTAAATGAGCTAGTCGGAGTCACCTAGTGCAG	3370 fluorescence intensity (a.u.)
AGAAAACAAACATATTATCAAATTATATTATATGTTAGTTCGGAGTCACCTAGTGCAG	3390 fluorescence intensity (a.u.)
TTTAACATTTCCCCTTATAATTTTACCAAATCACTATGTTCGGAGTCACCTAGTGCAG	4600 fluorescence intensity (a.u.)
ATCGTCCCTAAATTGGACAAAATTACACTGAACTACGCAGCGGAGTCACCTAGTGCAG	19900 fluorescence intensity (a.u.)
AATTTTGAATTTGATATAATTTATTTTATATCATTTGCTTCGGAGTCACCTAGTGCAG	10400 fluorescence intensity (a.u.)
GTTAATTACCCCGGTGTCACTTTCAGTCACCATCACCACTCGGAGTCACCTAGTGCAG	24600 fluorescence intensity (a.u.)
ACAATTTGGTAATTGATAAGATGGAGAAGAAACTGATCTCCGGAGTCACCTAGTGCAG	27400 fluorescence intensity (a.u.)
GAATCCAATTAAGACCAGCATGATGGATTTTGGAAAAGATCGGAGTCACCTAGTGCAG	13700 fluorescence intensity (a.u.)
CGCGTAATGGATTTGGGAAATTGGGAACCCATTGCTGCTGCGGAGTCACCTAGTGCAG	25800 fluorescence intensity (a.u.)
TCCTCTGATTTTCCACCACAAGATCTCTAGTTTCTTTGATCGGAGTCACCTAGTGCAG	5220 fluorescence intensity (a.u.)
ACATATGTAATTACATATGTAATTTTAGGAACTTACAATGCGGAGTCACCTAGTGCAG	24100 fluorescence intensity (a.u.)

Sequence	binding signal
GTCGCACTCACTCACTCGCATCCTCTCCTCTCAAATACTCCGGAGTCACCTAGTGCAG	3640 fluorescence intensity (a.u.)
TCAAATTCTAAATAGACAGATCCGGACTACCTGAATTAACCGGAGTCACCTAGTGCAG	21300 fluorescence intensity (a.u.)
CCTAATCGTTGATATTGGTGATAGAGACAAAGATTTCATGCGGAGTCACCTAGTGCAG	6170 fluorescence intensity (a.u.)
GAGATAAATTAGGAGAGTTTTCAACAGTGACAGCCCAGGCCGGAGTCACCTAGTGCAG	14200 fluorescence intensity (a.u.)
CTGCTGATTGGCTTATCAACAATAGCCAATATTTAAATGTCGGAGTCACCTAGTGCAG	26800 fluorescence intensity (a.u.)
CCCATATTAAAATTTGCTAATCAAATTCTCGAACTTACGTCGGAGTCACCTAGTGCAG	6840 fluorescence intensity (a.u.)
AATCTATATTTAATATTTATAATTAGTGTCCAAACCTTGACGGAGTCACCTAGTGCAG	7140 fluorescence intensity (a.u.)
GTAATTGGTTTGGTCAACAGCACAGCTAGCTTCTCCGTACCGGAGTCACCTAGTGCAG	4990 fluorescence intensity (a.u.)
TTGCCGTAAAATTGATTTTATATTCACGCTGTAGATACTGCGGAGTCACCTAGTGCAG	9720 fluorescence intensity (a.u.)
AGATAATTGTGAAATAATTATATTGCGATTTGATAAAGTACGGAGTCACCTAGTGCAG	14700 fluorescence intensity (a.u.)
AAATTTTGATCAAATCTTCTTCTTAACGTTGTACACTTATCGGAGTCACCTAGTGCAG	3980 fluorescence intensity (a.u.)
ATTAAACGTAGATTAATAACAAAACAAATCACAGATTCCGCGGAGTCACCTAGTGCAG	6620 fluorescence intensity (a.u.)
ATCACCAATCTATCTATAAAACCAAGGTGGTCGTCGTCTCCGGAGTCACCTAGTGCAG	5560 fluorescence intensity (a.u.)
AGGAAAATGTGGTGAGTAATTAGGTTATAATTTATTGAGTCGGAGTCACCTAGTGCAG	4100 fluorescence intensity (a.u.)
GGAAATTTTATAATTCGTAATCGTCACTTGTCCTTTAACCCGGAGTCACCTAGTGCAG	6030 fluorescence intensity (a.u.)
TGATTTCATGATTGATAGCTACATATCTTAGTTTCACACCCGGAGTCACCTAGTGCAG	40200 fluorescence intensity (a.u.)
GCCTCTAATGTCAATCAGTTTCGCTTTCCATCCTTCTCATCGGAGTCACCTAGTGCAG	28200 fluorescence intensity (a.u.)
TACGATTATACTATAATTATATCTGTCAAATATTTAGGAGCGGAGTCACCTAGTGCAG	25200 fluorescence intensity (a.u.)
GGTTACATAAATAAACATGATTTGTCAGTAATTCTGTGCCCGGAGTCACCTAGTGCAG	20900 fluorescence intensity (a.u.)
CAGGACGTGCAATAATTATATACTTTCAGTCTTTCACCAGCGGAGTCACCTAGTGCAG	3300 fluorescence intensity (a.u.)
TGATTAAATTGCTTTAACTTTTATTTAATTTGTAGAAAATCGGAGTCACCTAGTGCAG	22500 fluorescence intensity (a.u.)
